In assay [1] the test system is HSkMC (human skeletal muscle cells). The assay can be described thus: cytotoxicity call (relative viability < 0.9). As to conditions: 10 µM.
Assay [2] has as its system HepG2. The assay can be described thus: cytotoxicity call (relative viability < 0.9). As to conditions: 10 µM.
Assay [3] has as its system S. aureus RN4220. In words: growth inhibition call (relative growth <= 0.2). As to conditions: 50 µM.

Some of the results follow.

Consider `COc1ccc(S(=O)(=O)N(C)C[C@@H]2OCCCC[C@@H](C)Oc3ccc(NC(=O)Nc4c(C)noc4C)cc3C(=O)N([C@H](C)CO)C[C@@H]2C)cc1`, for which the cytotoxicity call in assay [1] and in assay [2] was “inactive” each time. The growth inhibition call in assay [3] is “inactive”.
Consider `O=C1c2ccccc2C(=O)C1c1ccc(Br)cc1`, for which the cytotoxicity call in assay [1] and in assay [2] was “inactive” throughout. Also, in assay [3], the growth inhibition call was “inactive”.
As for `C[C@@H]1CCCCO[C@@H](CN(C)CC2CCCCC2)[C@H](C)CN([C@H](C)CO)C(=O)c2cc(NC(=O)CCC(F)(F)F)ccc2O1`, the cytotoxicity call in assay [1] and in assay [2] was “inactive” each time. In addition, in assay [3], the growth inhibition call was “inactive”.
Consider `C[C@@H]1CN([C@H](C)CO)S(=O)(=O)c2ccc(C#Cc3ccncc3)cc2O[C@H]1CN(C)C(=O)C1CCC1`, for which the cytotoxicity call in assay [1] was “inactive”. For the same compound, the cytotoxicity call in assay [2] was “active”. Moreover, the growth inhibition call in assay [3] is “inactive”.
Take `O=C(NC1CCCCC1)NC1CCCCC1`: the cytotoxicity call in assay [1] and in assay [2] was “inactive” in each case. Moreover, the growth inhibition call in assay [3] was “inactive”.
Regarding `Cn1nc(Cn2ccnc2)c2c1CN(CCO)C2`, the cytotoxicity call in assay [1] and in assay [2] was “inactive” each time. For the same compound, the growth inhibition call in assay [3] was “inactive”.
For `COCC(=O)N(C)C[C@@H]1Oc2cc(C#CCC3CCCC3)ccc2S(=O)(=O)N([C@@H](C)CO)C[C@H]1C`, the cytotoxicity call in assay [1] and in assay [2] was “inactive” in each case. For the same compound, the growth inhibition call in assay [3] is “inactive”.
Turning to `C[C@@H]1CN([C@@H](C)CO)C(=O)c2cc(Br)cnc2O[C@H]1CN(C)S(=O)(=O)c1ccccc1`, the cytotoxicity call in assay [1] and in assay [2] was “inactive” in each case. For the same compound, the growth inhibition call in assay [3] was “inactive”.
Take `C[C@H]1CN([C@@H](C)CO)C(=O)Cc2cc(NC(=O)Nc3ccc4c(c3)OCO4)ccc2O[C@H]1CN(C)Cc1ccc(Cl)c(Cl)c1`: the cytotoxicity call in assay [1] and in assay [2] was “active” in each case. In addition, the growth inhibition call in assay [3] is “inactive”.
`C[C@@H]1CN([C@@H](C)CO)C(=O)c2cccc(NC(=O)CCCCCC(=O)Nc3ccccc3N)c2O[C@@H]1CN(C)Cc1ccc(Cl)c(Cl)c1`: the cytotoxicity call in assay [1] and in assay [2] was “inactive” throughout. Besides, in assay [3], the growth inhibition call was “inactive”.
For the compound `C[C@H](CO)N1C[C@H](C)[C@H](CN(C)S(=O)(=O)c2ccc(Cl)cc2)Oc2c(NC(=O)c3cnccn3)cccc2C1=O`, the cytotoxicity call in assay [1] and in assay [2] was “inactive” in each case. Moreover, the growth inhibition call in assay [3] was “inactive”.

Values taken from the antibiotic and cytotoxicity screens of Wong et al. (2023).
